# Test results: article PMC4336329 (PLoS ONE, 2015)
# Hit rate of the full screen: of about 310,000 compounds, about 14,000 (4.5%) showed an effect of 50% or more. Effects have a minus sign here. The list shows a part of the results.
# Target: human ether-à-go-go-related gene (hERG) potassium channel (human, UniProt Q12809)
# Experiment: primary screen, population patch clamp on CHO cells stably expressing hERG
# 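Also: peak tail current of the secondary pulse compared with the same well before compound.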
# Chain of human ether-à-go-go-related gene (hERG) potassium channel (Q12809 whole entry, looked up): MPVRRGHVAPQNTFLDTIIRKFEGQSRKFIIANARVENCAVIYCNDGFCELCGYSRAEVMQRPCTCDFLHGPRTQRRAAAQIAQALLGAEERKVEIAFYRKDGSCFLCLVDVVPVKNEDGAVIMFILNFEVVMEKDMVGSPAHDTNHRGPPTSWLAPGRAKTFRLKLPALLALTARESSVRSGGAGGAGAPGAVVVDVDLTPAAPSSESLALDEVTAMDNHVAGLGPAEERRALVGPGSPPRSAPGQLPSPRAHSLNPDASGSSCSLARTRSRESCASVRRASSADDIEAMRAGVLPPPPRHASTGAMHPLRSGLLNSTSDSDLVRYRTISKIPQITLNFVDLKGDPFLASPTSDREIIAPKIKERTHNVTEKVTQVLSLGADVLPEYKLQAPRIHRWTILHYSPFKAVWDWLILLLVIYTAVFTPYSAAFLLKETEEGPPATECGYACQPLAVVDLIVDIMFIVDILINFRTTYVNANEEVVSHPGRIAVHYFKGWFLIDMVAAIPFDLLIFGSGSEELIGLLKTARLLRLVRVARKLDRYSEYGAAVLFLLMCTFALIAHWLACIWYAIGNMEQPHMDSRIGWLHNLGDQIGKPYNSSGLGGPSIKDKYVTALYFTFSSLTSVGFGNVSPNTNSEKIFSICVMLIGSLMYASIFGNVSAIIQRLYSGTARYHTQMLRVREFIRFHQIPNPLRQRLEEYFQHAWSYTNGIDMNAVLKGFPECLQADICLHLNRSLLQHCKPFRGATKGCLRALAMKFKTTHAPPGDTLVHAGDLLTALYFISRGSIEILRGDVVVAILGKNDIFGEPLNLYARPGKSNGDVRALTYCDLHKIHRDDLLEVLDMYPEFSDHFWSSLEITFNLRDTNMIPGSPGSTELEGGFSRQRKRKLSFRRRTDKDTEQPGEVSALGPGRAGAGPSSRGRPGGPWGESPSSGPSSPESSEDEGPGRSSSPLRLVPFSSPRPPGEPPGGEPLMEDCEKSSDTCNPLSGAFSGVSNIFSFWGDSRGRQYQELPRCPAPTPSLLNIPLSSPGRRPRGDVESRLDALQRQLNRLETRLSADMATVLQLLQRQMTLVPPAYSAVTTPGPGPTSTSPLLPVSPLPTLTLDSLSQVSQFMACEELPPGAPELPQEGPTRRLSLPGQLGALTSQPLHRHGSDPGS
row,SMILES,"hERG current change (%, negative = inhibition) at 10uM [%]"
1,O=C(CSc1nnc(-c2ccc(Cl)cc2Cl)n1C1CCCCC1)N1CCCC1,-20.8
2,COC(=O)C1=C(c2ccc(C(C)=O)cc2)C[C@@H]2CC[C@H]1N2C(=O)N1CCC(O)(c2ccc(Cl)cc2)CC1,-73.6
3,CC1(C#N)c2ccccc2C(Br)=CN1C(=O)c1ccccc1 (stereo not drawn),0.996
4,Cc1cccc(C)c1NC(=S)N(CCCN1CCCCC1)Cc1ccco1,-25.7
5,COP(=O)(OC)C(NC(=O)C(C)(C)C)=C(Cl)Cl,4.27
6,CC1(C)Cc2c(C#N)c(NCCc3ccccc3)nc(-c3ccco3)c2CO1,12.5
7,N#CCC(=O)Nc1ccc(C(=O)OCC(=O)c2ccc3c(c2)NC(=O)CO3)cc1,6.61
8,CCOc1ccc(NC(=O)C/C(N)=N/O)cc1,11.8
9,Cc1ccc(NC(=O)CSc2nc(O)cc(=O)n2C)cc1,3.86
10,CC1C(c2ccccc2)=[N+]([O-])C2(CCCC2)N1O (stereo not drawn),0.2
11,CC(C)c1ccc(NC(=O)Cn2c(=O)oc3cccnc32)cc1,-5.25
12,CC(/C=N/n1c(-c2ccc(Cl)cc2)n[nH]c1=S)=C\c1ccco1,6.27
13,O=C(NCc1ccncc1)c1ccc(NS(=O)(=O)c2cccc([N+](=O)[O-])c2)cc1,19.2
14,c1ccc(-c2n[nH]c(-c3ccccn3)n2)nc1,19.6
15,C=CCN1C(=O)c2ccccc2NC1c1ccc(Br)s1 (stereo not drawn),-5.19
16,Cc1cc(NC(=O)CSc2nccn2-c2cccc(Cl)c2)no1,-4.27
17,N#Cc1nc(COc2ccccc2F)oc1NCc1ccc(F)cc1,7.13
18,c1ccc(-c2csc(Nc3cccnc3)n2)nc1,-1.27
19,CC(C)CC(=O)NC(=S)Nc1ccc(F)cc1F,9.46
20,COc1ccc(-c2noc(C3CCCN(C(=O)c4ccc(F)cc4)C3)n2)cc1 (stereo not drawn),-35.3
21,FC(F)(F)c1cccc(NC2=NCCCS2)c1,11.6
22,O=C(NCCC(=O)N1CCc2ccccc21)c1ccccc1Cl,3.84
23,COc1cc(/C=C2/C(=O)NN(c3ccc(C)c(Cl)c3)C2=O)cc([N+](=O)[O-])c1O,17.5

row,SMILES,"hERG current change (%, negative = inhibition) at 10uM [%]"
1,C/C(=N\N1CCN(c2ccc(Cl)cc2)CC1)c1cccs1,-3.52
2,O=C(O)c1ccc2c(=O)n(Cc3ccccc3)c(SCc3ccc([N+](=O)[O-])cc3)nc2c1,-29.5
3,O=C(Nc1ccc2[nH]c(=O)[nH]c2c1)C(F)(F)F,14.9
4,CC(=O)c1ccc(Nc2nc3ccc(C)cc3n3cnnc23)cc1,14.2
5,CCN(CC)S(=O)(=O)c1cccc(-c2nnc(SCC(=O)NCCC3=CCCCC3)n2N)c1,-32.6
6,N#Cc1ccc(COC(=O)C2CCC(=O)N2)cc1 (stereo not drawn),9.97
7,COCCN(CCOC)C(=O)c1ccc(SCc2ccc(C)cc2)c([N+](=O)[O-])c1,-43.8
8,CC1C(=O)Nc2ccccc2N1C(=O)c1ccc(O)cc1 (stereo not drawn),5.81
9,C=CCNC(=O)CN(Cc1ccccc1)S(=O)(=O)c1ccccc1,-4.02
10,CCN(CC)c1ccc(/C=N/NC(=O)c2cccc(S(=O)(=O)Nc3ccccc3OC)c2)cc1,2.69
11,CCOC(=O)C1CCCN(C(=O)c2cc3cc(F)ccc3[nH]2)C1 (stereo not drawn),-7.96
12,O=C(O)c1ccc2c(c1)N(Cc1ccc(F)cc1)C(=O)c1ccccc1S2,-1.07
13,CCNS(=O)(=O)c1ccc2nc(NC(=O)/C=C/c3cc(OC)c(OC)c(OC)c3)sc2c1,-4.17
14,Clc1ccc(NCc2nncn2-c2ccccc2)cc1,-7.52
15,Cc1ccc(-c2nc3ccc(C(=O)O)cc3nc2-c2ccc(C)cc2)cc1,4.24
16,Cc1ccc(-n2c(-c3ccccc3)c[nH]c2=S)cc1,-1.47
17,CC(=O)C1C(=O)CC(C)(O)C(C(C)=O)C1c1ccc(N(C)C)cc1 (stereo not drawn),18
18,COc1ccc(C2CC(c3c(-c4ccccc4)c4cc(Cl)ccc4[nH]c3=O)=NN2S(C)(=O)=O)cc1OC (stereo not drawn),9.73
19,COc1ccc(-c2oc3ncnc(NCCCN(C)C)c3c2-c2ccc(OC)cc2)cc1,-60.2
20,CC(C)OCCCNc1nc(-c2ccccc2)nc2ccccc12.Cl,-2.52
21,COc1ccccc1CN1C(=O)[C@@H]2C(CCC(N)=O)NC3(C(=O)Nc4c3ccc(Cl)c4C)[C@@H]2C1=O (stereo partly drawn),-5.7
22,CCCCc1nc2cc(C(=O)NC3CCOC(C)(C)C3)ccc2o1 (stereo not drawn),-15.2
23,CCCN1C=CC(=C/C=C(\C#N)C(=O)OCC)C=C1,-6.49

row,SMILES,"hERG current change (%, negative = inhibition) at 10uM [%]"
1,COc1ccc(-n2ncc3c2CC(C)(C)CC3NC(=O)C2CCN(C(C)=O)CC2)cc1 (stereo not drawn),-34.5
2,CC1(C)CC(CC(=O)O)(c2ccc(F)cc2)CCO1 (stereo not drawn),3.33
3,NC(=O)c1cccnc1Oc1ccc(Cl)cc1,-1.03
4,COc1cc(/C=N/NC(=O)CCc2n[nH]c(=O)[nH]c2=O)ccc1O,-0.627
5,CSc1nccc(Oc2ccccc2Cl)n1,12.1
6,O=C(NC1CCCC1)C(c1ccncc1)N(C(=O)Cc1cccs1)c1cccc(F)c1 (stereo not drawn),6.82
7,COc1cc([N+](=O)[O-])ccc1NC(=O)CSc1n[nH]c(C(C)C)n1,24.6
8,CC(=O)Nc1c(NC(C)C)c2ccccc2oc1=O,12.9
9,O=C1CCCN1CCC(=O)N1CCCC(CO)(Cc2ccccc2)C1 (stereo not drawn),31.6
10,CC(C)N1CCCC(CNC(=O)CCc2nnc(CCCCc3ccccc3)o2)C1 (stereo not drawn),17.5
11,CCN(CC)S(=O)(=O)c1ccc(C(=O)Nc2nnc(C(C)C)s2)cc1,-3.69
12,Fc1cc(F)c(C2SCCN2C(=S)Nc2cccc(C(F)(F)F)c2)c(F)c1 (stereo not drawn),15.1
13,Cc1cc(N=Cc2c(O)n(-c3cccc(Cl)c3)c(=O)c3ccccc23)no1,-5.29
14,CCOC(=O)c1cnc(SC)nc1Sc1ccccc1,-16.6
15,COc1ccc(CC(=O)N2CCN(c3ccccc3F)CC2)cc1OC,-21.1
16,O=S(=O)(Cc1ccccc1)N1CCN(Cc2ccc3c(c2)OCO3)CC1,-6.28
17,Cc1ccc(S(=O)(=O)N(Cc2ccccc2)c2ccccc2C(=O)Nc2ccccc2C(=O)NCc2ccco2)cc1,10.5
18,COc1ccc(CCNC(=O)N[C@@H](Cc2ccccc2)C(=O)O)cc1,19.1
19,Cc1ccc(C(=O)NCCc2nc3ccccc3[nH]2)cc1[N+](=O)[O-],-31.8
20,C=CCN(c1ccc(C(=O)N(CC)CC)cc1)S(C)(=O)=O,-4.12
21,COc1ccccc1Oc1ccc(-c2cnc3ccccc3n2)cc1[N+](=O)[O-],23.8
22,C#CCOc1c(Br)cc(/C=C2/C(=O)ON=C2C)cc1OCC,20.3
23,COc1ccc(CC(=O)n2nc(-c3cccnc3)nc2N)cc1,6.03

row,SMILES,"hERG current change (%, negative = inhibition) at 10uM [%]"
1,O=C(Nc1cccc([N+](=O)[O-])c1)ONC1=NCCCCC1,-9.32
2,COc1ccc(-n2c(SCC(=O)N3CCOCC3)nc(O)cc2=O)cc1,19.1
3,COC(=O)c1c(-c2ccccc2)csc1N1C(=O)Nc2ccccc2N1O,2.61
4,C/C(=N/NC(N)=S)c1ccccc1[N+](=O)[O-],7.13
5,COC(=O)c1ccc(-c2csc(NC(=O)c3ccc(S(=O)(=O)N4CCc5ccccc5C4)cc3)n2)cc1,1.75
6,Nn1c(SCC(=O)NCc2ccccc2)nnc1C1CC1,-11.8
7,CN=C1NN=C(c2cc(C)n(-c3ccc(Cl)cc3)c2C)CS1,11.9
8,Cc1nn(C)c(Cl)c1CN1CCC(CO)(CCOc2ccccc2)CC1,-54.7
9,Cc1ccnc(SCCn2c(Br)nc3c2c(=O)[nH]c(=O)n3C)n1,-9.85
10,CC(OC(=O)CN1C(=O)NC2(CCCC2)C1=O)c1ccc(F)cc1 (stereo not drawn),-16.9
11,COc1ccc(CCNC(=S)Nc2ccc(OC)cc2)cc1,-5.46
12,O=C(c1ccco1)c1cn(CC(=O)N2CCCCCC2)c2ccccc12,7.15
13,COc1ccc(C(=O)NC(=S)SCC(=O)O)cc1,21.8
14,O=C1N=c2ccccc2=C1c1sc(NS(=O)(=O)Cc2ccccc2)nc1O,8.85
15,CCOc1ccc(NC(=O)CSc2nnc(-c3ccco3)n2N)cc1,-13.8
16,CCOC(=O)C(NC(C)=O)C(=O)O (stereo not drawn),14.2
17,Cn1c(SCC(=O)N2CCCC2=O)nc2ccccc21,28.2
18,CCOC(=O)c1c(OCCO)noc1N,16.6
19,CC(=O)c1coc2ccc(OCC(=O)O)cc12,-6.05
20,CCc1ccccc1NC(=O)CSc1n[nH]c(-c2cccnc2)n1,-14.5
21,COc1ccc(Cl)cc1NC(=O)COC(=O)c1ccc(Cl)nc1,-36.4
